{"source": "patent US9358096B2", "about": "“Methods of treatment with drug eluting stents with prolonged local elution profiles with high local concentrations and low systemic concentrations” (Abbott Laboratories, priority 2007, dated 2016)", "key": {"[1]": {"assay": "everolimus arterial tissue concentration in and next to the stented vessel", "type": "in vivo", "conditions": "swine, 7.0×100 mm stent"}, "[2]": {"assay": "extravascular tissue drug concentration after stent implantation", "type": "in vivo", "conditions": "swine, 7.0×100 mm stent"}, "[3]": {"assay": "systemic blood concentration of everolimus in stented patients", "type": "in vivo", "conditions": "STENT A", "description": "A second salient feature of the slow drug release of the STENT A embodiment is that the potential for systemic everolimus overexposure is minimized."}, "[4]": {"conditions": "cited from earlier work"}, "neointimal hyperplasia": {"tested_on": "neointimal hyperplasia", "conditions": "cited from earlier work"}, "restenosis": {"tested_on": "restenosis", "conditions": "formulated onto coronary stents at 150 μg everolimus/cm^2 stent area; cited from earlier work"}, "[5]": {"assay": "everolimus whole blood concentration after stent implantation in swine", "conditions": "for Cmax / Tmax: pig; for Cmax: blood Cmax; for Tmax: blood Tmax"}, "[6]": {"conditions": "read-out: Mean Arterial Tissue Concentration, A non-stented region proximal to stented region"}, "[7]": {"conditions": "read-out: Mean Arterial Tissue Concentration, E non-stented region distal to stented region"}, "[8]": {"conditions": "kidney, read-out: Extravascular Drug Concentration, Kidney"}, "[9]": {"conditions": "liver, read-out: Extravascular Drug Concentration, Liver"}, "[10]": {"conditions": "lung, read-out: Extravascular Drug Concentration, Lung"}, "[11]": {"conditions": "muscle (gastrocnemius), read-out: Extravascular Drug Concentration, Muscle"}, "[12]": {"conditions": "spleen, read-out: Extravascular Drug Concentration, Spleen"}, "[13]": {"conditions": "whole blood, 1070 ug, 8×28 mm stent, 1070 μg everolimus (first aspect, matches group 1)"}, "[14]": {"conditions": "whole blood, 1070 ug, 8×28 mm stent, 1070 μg everolimus (second aspect, matches group 2)"}, "[15]": {"conditions": "whole blood, 1070 ug, 10×28 mm stent, 1070 μg everolimus"}, "[16]": {"conditions": "whole blood, 3209 ug, 8×28 mm stent, 3209 μg everolimus"}, "[17]": {"conditions": "swine, whole blood, 1070 μg, drug concentration in whole blood, swine, 8.0×28 mm stent, group 2, 1070 μg Lot #2"}, "[18]": {"conditions": "swine, whole blood, 1070 μg, drug concentration in whole blood, 10.0×28 mm stent"}, "[19]": {"conditions": "swine, whole blood, 3209 μg, drug concentration in whole blood, swine, 8.0×28 mm stent, group 3, 3209 μg"}, "[20]": {"conditions": "swine, whole blood, drug concentration in whole blood, 7.0×100 mm stent"}}, "note": "Where “and” joins values, the source holds several entries; their conditions need not be identical. Identical values can stand only once."}
{"smiles": "CO[C@H]1C[C@@H]2CC[C@@H](C)[C@@](O)(O2)C(=O)C(=O)N2CCCC[C@H]2C(=O)O[C@H]([C@H](C)C[C@@H]2CC[C@@H](OCCO)[C@H](OC)C2)CC(=O)[C@H](C)/C=C(\\C)[C@@H](O)[C@@H](OC)C(=O)[C@H](C)C[C@H](C)/C=C/C=C/C=C/1C", "note": "[everolimus, 40-O-(2-hydroxyethyl)-rapamycin]", "values": [{"measurement": "concentration at 7 days", "setting": "[1]; [6]", "result": 524, "unit": "ng/g"}, {"measurement": "concentration at 7 days", "setting": "[1]; [7]", "result": 332, "unit": "ng/g"}, {"measurement": "concentration at 14 days", "setting": "[1]; [6]", "result": 123, "unit": "ng/g"}, {"measurement": "concentration at 14 days", "setting": "[1]; [7]", "result": 353, "unit": "ng/g"}, {"measurement": "concentration at 28 days", "setting": "[1]; [6]", "result": 114, "unit": "ng/g"}, {"measurement": "concentration at 28 days", "setting": "[1]; [7]", "result": 245, "unit": "ng/g"}, {"measurement": "concentration at 90 days", "setting": "[1]; [6]", "result": 50, "unit": "ng/g"}, {"measurement": "concentration at 90 days", "setting": "[1]; [7]", "result": 18, "unit": "ng/g"}, {"measurement": "concentration at 3 days", "setting": "[2]; [8]", "result": 25.6, "unit": "ng/g"}, {"measurement": "concentration at 7 days", "setting": "[2]; [8]", "result": 15.6, "unit": "ng/g"}, {"measurement": "concentration at 14 days", "setting": "[2]; [8]", "result": 11.2, "unit": "ng/g"}, {"measurement": "concentration at 28 days", "setting": "[2]; [8]", "result": 4.2, "unit": "ng/g"}, {"measurement": "concentration at 90 days", "setting": "[2]; [8]", "result": 0.8, "unit": "ng/g"}, {"measurement": "concentration at 3 days", "setting": "[2]; [9]", "result": 15.1, "unit": "ng/g"}, {"measurement": "concentration at 7 days", "setting": "[2]; [9]", "result": 13.2, "unit": "ng/g"}, {"measurement": "concentration at 14 days", "setting": "[2]; [9]", "result": 8.2, "unit": "ng/g"}, {"measurement": "concentration at 28 days", "setting": "[2]; [9]", "result": 2.9, "unit": "ng/g"}, {"measurement": "concentration at 3 days", "setting": "[2]; [10]", "result": 22.8, "unit": "ng/g"}, {"measurement": "concentration at 7 days", "setting": "[2]; [10]", "result": 12, "unit": "ng/g"}, {"measurement": "concentration at 14 days", "setting": "[2]; [10]", "result": 8.7, "unit": "ng/g"}, {"measurement": "concentration at 28 days", "setting": "[2]; [10]", "result": 3.2, "unit": "ng/g"}, {"measurement": "concentration at 90 days", "setting": "[2]; [10]", "result": 0.5, "unit": "ng/g"}, {"measurement": "concentration at 3 days", "setting": "[2]; [11]", "result": 13.5, "unit": "ng/g"}, {"measurement": "concentration at 7 days", "setting": "[2]; [11]", "result": 6.3, "unit": "ng/g"}, {"measurement": "concentration at 14 days", "setting": "[2]; [11]", "result": 4.8, "unit": "ng/g"}, {"measurement": "concentration at 28 days", "setting": "[2]; [11]", "result": 0.8, "unit": "ng/g"}, {"measurement": "concentration at 3 days", "setting": "[2]; [12]", "result": 23.1, "unit": "ng/g"}, {"measurement": "concentration at 7 days", "setting": "[2]; [12]", "result": 14.4, "unit": "ng/g"}, {"measurement": "concentration at 28 days", "setting": "[2]; [12]", "result": 3.5, "unit": "ng/g"}, {"measurement": "concentration at 90 days", "setting": "[2]; [12]", "result": 0.7, "unit": "ng/g"}, {"measurement": "maximum systemic blood concentration of everolimus in stented patients", "setting": "[3]; 100 mm stent having about 3.8 mg drug, one hour post-procedure", "result": "3 to 4", "unit": "ng/mL"}, {"measurement": "whole blood concentration of everolimus in stented patients, projected", "setting": "[3]; projected from porcine model (FIG. 3)", "result": "1 to 6", "unit": "ng/mL"}, {"measurement": "Cmax of patients treated with 5 mg everolimus per day in safety studies", "setting": "[4]; 5 mg everolimus per day", "result": "114 ng/mL and 116 ng/mL"}, {"measurement": "recommended upper therapeutic limit in transplanted patients", "setting": "[4]; blood concentration", "result": 8, "unit": "ng/mL"}, {"measurement": "effect on neointimal hyperplasia in animal models", "setting": "neointimal hyperplasia", "result": "effectively inhibits neointimal hyperplasia"}, {"measurement": "effect on restenosis as compared to bare metal or paclitaxel-eluting stents", "setting": "restenosis", "result": "reduces restenosis"}, {"measurement": "blood Tmax", "setting": "[5]; 7×100 mm stent, 3777 μg everolimus", "result": 1.01, "unit": "h"}, {"measurement": "Cmax", "setting": "[5]; [13]", "result": "≤ 2.29", "unit": "ng/mL"}, {"measurement": "Cmax", "setting": "[5]; [14]", "result": "≤ 2.7", "unit": "ng/mL"}, {"measurement": "Cmax", "setting": "[5]; [15]", "result": "≤ 0.72", "unit": "ng/mL"}, {"measurement": "Tmax", "setting": "[5]; [13]", "result": 24, "unit": "h"}, {"measurement": "Tmax", "setting": "[5]; [14]", "result": 72, "unit": "h"}, {"measurement": "Tmax", "setting": "[5]; [15]", "result": 168, "unit": "h"}, {"measurement": "Cmax", "setting": "[5]; [16]", "result": "≤ 3.35", "unit": "ng/mL"}, {"measurement": "Tmax", "setting": "[5]; [16]", "result": 72, "unit": "h"}, {"measurement": "Cmax", "setting": "[5]; whole blood, 3777 ug, 7×100 mm stent, 3777 μg everolimus", "result": "≤ 9.6", "unit": "ng/mL"}, {"measurement": "concentration at 3 days", "setting": "[5]; [17]", "result": 2.7, "unit": "ng/mL"}, {"measurement": "concentration at 7 days", "setting": "[5]; [17]", "result": 1.57, "unit": "ng/mL"}, {"measurement": "concentration at 28 days", "setting": "[5]; [17]", "result": "< 0.1", "unit": "ng/mL"}, {"measurement": "concentration at 56 days", "setting": "[5]; [17]", "result": "< 0.1", "unit": "ng/mL"}, {"measurement": "concentration at 90 days", "setting": "[5]; [17]", "result": "< 0.1", "unit": "ng/mL"}, {"measurement": "concentration at 7 days", "setting": "[5]; [18]", "result": 0.72, "unit": "ng/mL"}, {"measurement": "concentration at 14 days", "setting": "[5]; [18]", "result": 0.23, "unit": "ng/mL"}, {"measurement": "concentration at 28 days", "setting": "[5]; [18]", "result": 0.12, "unit": "ng/mL"}, {"measurement": "concentration at 90 days", "setting": "[5]; [18]", "result": "< 0.1", "unit": "ng/mL"}, {"measurement": "concentration at 3 days", "setting": "[5]; [19]", "result": 3.35, "unit": "ng/mL"}, {"measurement": "concentration at 7 days", "setting": "[5]; [19]", "result": 1.45, "unit": "ng/mL"}, {"measurement": "concentration at 14 days", "setting": "[5]; [19]", "result": 1.03, "unit": "ng/mL"}, {"measurement": "concentration at 28 days", "setting": "[5]; [19]", "result": 0.29, "unit": "ng/mL"}, {"measurement": "concentration at 56 days", "setting": "[5]; [19]", "result": "< 0.1", "unit": "ng/mL"}, {"measurement": "concentration at 90 days", "setting": "[5]; [19]", "result": "< 0.1", "unit": "ng/mL"}, {"measurement": "concentration at 0.04 days", "setting": "[5]; swine, whole blood, drug concentration in whole blood, 7.0×100 mm stent, 0.04 days", "result": 9.56, "unit": "ng/mL"}, {"measurement": "concentration at 0.12 days", "setting": "[5]; swine, whole blood, drug concentration in whole blood, 7.0×100 mm stent, 0.12 days", "result": 6.25, "unit": "ng/mL"}, {"measurement": "concentration at 0.25 days", "setting": "[5]; swine, whole blood, drug concentration in whole blood, 7.0×100 mm stent, 0.25 days", "result": 4.97, "unit": "ng/mL"}, {"measurement": "concentration at 1 day", "setting": "[5]; swine, whole blood, drug concentration in whole blood, 7.0×100 mm stent, 1 day", "result": 4.94, "unit": "ng/mL"}, {"measurement": "concentration at 2 days", "setting": "[5]; swine, whole blood, drug concentration in whole blood, 7.0×100 mm stent, 2 days", "result": 4.13, "unit": "ng/mL"}, {"measurement": "concentration at 3 days", "setting": "[5]; [20]", "result": 3.52, "unit": "ng/mL"}, {"measurement": "concentration at 7 days", "setting": "[5]; [20]", "result": 1.64, "unit": "ng/mL"}, {"measurement": "concentration at 14 days", "setting": "[5]; [20]", "result": 1.14, "unit": "ng/mL"}, {"measurement": "concentration at 28 days", "setting": "[5]; [20]", "result": 0.27, "unit": "ng/mL"}, {"measurement": "concentration at 90 days", "setting": "[5]; [20]", "result": "< 0.1", "unit": "ng/mL"}, {"measurement": "concentration at 0 days", "setting": "[5]; swine, whole blood, drug concentration in whole blood, 7.0×100 mm stent, at implantation", "result": "< 0.1", "unit": "ng/mL"}]}
